# According to the supplement of paper PMC8728848:
# This is one part of the list.
# B1: GS13455A-bfa-343-25-343 (Bacteroides fragilis) (protein)
# chain: KDEIQIVDQDTSWQMDNKYIEEDIREQLGIDPFTDLVYLGYYGNPYTQLEAINDLVNTTLVGKNELSFKVKVTKPYKEDIKVNLMKEDKLVTDFPEMAEGIPLFPSENCTFEGGVLKAGELETTVKLTLKDVEKLNNLSGYVMAIKLTMEGSHEHLAIARTRSSYFVKLNLSIRLDNIDSSNKKIEGKGFNKEISFKSDIRPDKLGSLNDGNFTANNWYTSNANNYLTIILPEKQSLKGFRLDTNTSPSGSYMLKSCRVMVETPDGNWVNHGVFDRKSMDGIAYISFKKPVECTKVRFENMMAFNGRFSVDVNEVTAFR
# What was measured:
# Test in all cases: glycan array binding signal (z-score within array); higher = stronger binding
# Conditions in all cases: glycan notation: IUPAC condensed, linker removed
# [1] = target: Gal(a1-3)Gal(b1-4)GlcNAc(b1-2)Man
# In short: (§1)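 Negative Z-scores can be read as non-binding. The Z-score is calculated within each array and then averaged across arrays of one protein sequence at different concentrations or buffers and across linkers. Arrays, 3228 in all, were curated from the Consortium for Functional Glycomics database and kept only where the protein sequence was available.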
# [2] = target: Gal(a1-3)Gal(b1-4)GlcNAc(b1-2)Man(a1-3)[Gal(a1-3)Gal(b1-4)GlcNAc(b1-2)Man(a1-6)]Man(b1-4)GlcNAc(b1-4)GlcNAc
# In short: as §1
# [3] = target: Gal(a1-3)Gal(b1-4)GlcNAc(b1-3)GalNAc
# In short: as §1
# [4] = target: Gal(a1-3)Gal(b1-4)GlcNAc(b1-6)GalNAc
# In short: as §1
# [5] = target: Gal(a1-3)Gal(b1-4)[Fuc(a1-3)]GlcNAc
# In short: as §1
# [6] = target: Gal(a1-3)Gal(b1-4)[Fuc(a1-3)]GlcNAc(b1-2)Man(a1-3)[Gal(a1-3)Gal(b1-4)[Fuc(a1-3)]GlcNAc(b1-2)Man(a1-6)]Man(b1-4)GlcNAc(b1-4)GlcNAc
# In short: as §1
# Gal(a1-3)GalNAc = target: Gal(a1-3)GalNAc
# In short: as §1
# [7] = target: Gal(a1-3)[Gal(a1-4)]Gal(b1-4)GlcNAc
# In short: as §1
# [8] = target: Gal(a1-4)Gal(b1-3)GlcNAc(b1-2)Man(a1-3)[Gal(a1-4)Gal(b1-3)GlcNAc(b1-2)Man(a1-6)]Man(b1-4)GlcNAc(b1-4)GlcNAc
# In short: as §1
# Gal(a1-4)Gal(b1-4)Glc = target: Gal(a1-4)Gal(b1-4)Glc
# In short: as §1
# Gal(a1-4)Gal(b1-4)GlcNAc = target: Gal(a1-4)Gal(b1-4)GlcNAc
# In short: as §1
# [9] = target: Gal(a1-4)Gal(b1-4)GlcNAc(b1-2)Man(a1-3)[Gal(a1-4)Gal(b1-4)GlcNAc(b1-2)Man(a1-6)]Man(b1-4)GlcNAc(b1-4)GlcNAc
# In short: as §1
# [10] = target: Gal(a1-4)Gal(b1-4)GlcNAc(b1-3)Gal(b1-4)Glc
# In short: as §1
# Gal(a1-4)GlcNAc = target: Gal(a1-4)GlcNAc
# In short: as §1
# Gal(a1-6)Glc = target: Gal(a1-6)Glc
# In short: as §1
# Gal(b1-2)Gal = target: Gal(b1-2)Gal
# In short: as §1
# Gal(b1-3)Gal = target: Gal(b1-3)Gal
# In short: as §1
# Gal(b1-3)Gal(b1-4)GlcNAc = target: Gal(b1-3)Gal(b1-4)GlcNAc
# In short: as §1
# Gal(b1-3)GalNAc = target: Gal(b1-3)GalNAc
# In short: as §1
# [11] = target: Gal(b1-3)GalNAc(a1-3)[Fuc(a1-2)]Gal(b1-4)Glc
# In short: as §1
# [12] = target: Gal(b1-3)GalNAc(a1-3)[Fuc(a1-2)]Gal(b1-4)GlcNAc
# In short: as §1
# Gal(b1-3)GalNAc(b1-3)Gal = target: Gal(b1-3)GalNAc(b1-3)Gal
# In short: as §1
# [13] = target: Gal(b1-3)GalNAc(b1-3)Gal(a1-4)Gal(b1-4)Glc
# In short: as §1
# [14] = target: Gal(b1-3)GalNAc(b1-4)Gal(b1-4)Glc
# In short: as §1
# [15] = target: Gal(b1-3)GalNAc(b1-4)[Neu5Ac(a2-3)]Gal(b1-4)Glc
# In short: as §1
# Gal(b1-3)GlcNAc = target: Gal(b1-3)GlcNAc
# In short: as §1
# [16] = target: Gal(b1-3)GlcNAc(a1-3)Gal(b1-4)GlcNAc
# In short: as §1
# [17] = target: Gal(b1-3)GlcNAc(a1-6)Gal(b1-4)GlcNAc
# In short: as §1
# Gal(b1-3)GlcNAc(b1-2)Man = target: Gal(b1-3)GlcNAc(b1-2)Man
# In short: as §1
# [18] = target: Gal(b1-3)GlcNAc(b1-2)Man(a1-3)[Gal(b1-3)GlcNAc(b1-2)Man(a1-6)]Man(b1-4)GlcNAc(b1-4)GlcNAc
# In short: as §1
# [19] = target: Gal(b1-3)GlcNAc(b1-2)Man(a1-3)[Gal(b1-3)GlcNAc(b1-2)Man(a1-6)]Man(b1-4)GlcNAc(b1-4)[Fuc(a1-6)]GlcNAc
# In short: as §1
# [20] = target: Gal(b1-3)GlcNAc(b1-2)Man(a1-3)[GlcNAc(b1-4)][Gal(b1-3)GlcNAc(b1-2)Man(a1-6)]Man(b1-4)GlcNAc(b1-4)GlcNAc
# In short: as §1
# [21] = target: Gal(b1-3)GlcNAc(b1-2)[Gal(b1-3)GlcNAc(b1-6)]Man(a1-6)[Gal(b1-3)GlcNAc(b1-2)Man(a1-3)]Man(b1-4)GlcNAc(b1-4)GlcNAc
# In short: as §1
# [22] = target: Gal(b1-3)GlcNAc(b1-3)Gal(b1-3)GlcNAc
# In short: as §1
# [23] = target: Gal(b1-3)GlcNAc(b1-3)Gal(b1-4)Glc
# In short: as §1
# [24] = target: Gal(b1-3)GlcNAc(b1-3)Gal(b1-4)GlcNAc
# In short: as §1
# [25] = target: Gal(b1-3)GlcNAc(b1-3)Gal(b1-4)GlcNAc(b1-2)Man(a1-3)[Gal(b1-3)GlcNAc(b1-3)Gal(b1-4)GlcNAc(b1-2)Man(a1-6)]Man(b1-4)GlcNAc(b1-4)GlcNAc
# In short: as §1
binder,measurement,setting,value
B1,glycan array binding signal (z-score),[1],-0.548
same,glycan array binding signal (z-score),[2],-0.3
same,glycan array binding signal (z-score),[3],0.418
same,glycan array binding signal (z-score),[4],-0.675
same,glycan array binding signal (z-score),[5],0.787
same,glycan array binding signal (z-score),[6],0.922
same,glycan array binding signal (z-score),Gal(a1-3)GalNAc,-0.132
same,glycan array binding signal (z-score),[7],1.91
same,glycan array binding signal (z-score),[8],-0.925
same,glycan array binding signal (z-score),Gal(a1-4)Gal(b1-4)Glc,-0.076
same,glycan array binding signal (z-score),Gal(a1-4)Gal(b1-4)GlcNAc,0.408
same,glycan array binding signal (z-score),[9],-0.283
same,glycan array binding signal (z-score),[10],-0.485
same,glycan array binding signal (z-score),Gal(a1-4)GlcNAc,-0.648
same,glycan array binding signal (z-score),Gal(a1-6)Glc,-0.664
same,glycan array binding signal (z-score),Gal(b1-2)Gal,-0.706
same,glycan array binding signal (z-score),Gal(b1-3)Gal,-0.383
same,glycan array binding signal (z-score),Gal(b1-3)Gal(b1-4)GlcNAc,-0.061
same,glycan array binding signal (z-score),Gal(b1-3)GalNAc,-0.233
same,glycan array binding signal (z-score),[11],-0.504
same,glycan array binding signal (z-score),[12],-0.147
same,glycan array binding signal (z-score),Gal(b1-3)GalNAc(b1-3)Gal,0.012
same,glycan array binding signal (z-score),[13],0.625
same,glycan array binding signal (z-score),[14],-0.178
same,glycan array binding signal (z-score),[15],-0.051
same,glycan array binding signal (z-score),Gal(b1-3)GlcNAc,0.752
same,glycan array binding signal (z-score),[16],0.493
same,glycan array binding signal (z-score),[17],1.12
same,glycan array binding signal (z-score),Gal(b1-3)GlcNAc(b1-2)Man,1.35
same,glycan array binding signal (z-score),[18],-0.161
same,glycan array binding signal (z-score),[19],-0.245
same,glycan array binding signal (z-score),[20],-0.164
same,glycan array binding signal (z-score),[21],-0.302
same,glycan array binding signal (z-score),[22],0.175
same,glycan array binding signal (z-score),[23],-0.08
same,glycan array binding signal (z-score),[24],-0.985
same,glycan array binding signal (z-score),[25],-0.115
